Each structure is given as a SMILES string. In all, about 310,000 compounds went through this assay and about 14,000 (4.5%) showed an effect of 50% or more. Effects have a minus sign here. The list shows a part of the results.
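Further: peak tail current of the secondary pulse compared with the same well before compound.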

In this test the target is human ether-à-go-go-related gene (hERG) potassium channel (human, UniProt Q12809). The experiment in a line: primary screen, population patch clamp on CHO cells stably expressing hERG.
Sequence of human ether-à-go-go-related gene (hERG) potassium channel (Q12809 whole entry, looked up): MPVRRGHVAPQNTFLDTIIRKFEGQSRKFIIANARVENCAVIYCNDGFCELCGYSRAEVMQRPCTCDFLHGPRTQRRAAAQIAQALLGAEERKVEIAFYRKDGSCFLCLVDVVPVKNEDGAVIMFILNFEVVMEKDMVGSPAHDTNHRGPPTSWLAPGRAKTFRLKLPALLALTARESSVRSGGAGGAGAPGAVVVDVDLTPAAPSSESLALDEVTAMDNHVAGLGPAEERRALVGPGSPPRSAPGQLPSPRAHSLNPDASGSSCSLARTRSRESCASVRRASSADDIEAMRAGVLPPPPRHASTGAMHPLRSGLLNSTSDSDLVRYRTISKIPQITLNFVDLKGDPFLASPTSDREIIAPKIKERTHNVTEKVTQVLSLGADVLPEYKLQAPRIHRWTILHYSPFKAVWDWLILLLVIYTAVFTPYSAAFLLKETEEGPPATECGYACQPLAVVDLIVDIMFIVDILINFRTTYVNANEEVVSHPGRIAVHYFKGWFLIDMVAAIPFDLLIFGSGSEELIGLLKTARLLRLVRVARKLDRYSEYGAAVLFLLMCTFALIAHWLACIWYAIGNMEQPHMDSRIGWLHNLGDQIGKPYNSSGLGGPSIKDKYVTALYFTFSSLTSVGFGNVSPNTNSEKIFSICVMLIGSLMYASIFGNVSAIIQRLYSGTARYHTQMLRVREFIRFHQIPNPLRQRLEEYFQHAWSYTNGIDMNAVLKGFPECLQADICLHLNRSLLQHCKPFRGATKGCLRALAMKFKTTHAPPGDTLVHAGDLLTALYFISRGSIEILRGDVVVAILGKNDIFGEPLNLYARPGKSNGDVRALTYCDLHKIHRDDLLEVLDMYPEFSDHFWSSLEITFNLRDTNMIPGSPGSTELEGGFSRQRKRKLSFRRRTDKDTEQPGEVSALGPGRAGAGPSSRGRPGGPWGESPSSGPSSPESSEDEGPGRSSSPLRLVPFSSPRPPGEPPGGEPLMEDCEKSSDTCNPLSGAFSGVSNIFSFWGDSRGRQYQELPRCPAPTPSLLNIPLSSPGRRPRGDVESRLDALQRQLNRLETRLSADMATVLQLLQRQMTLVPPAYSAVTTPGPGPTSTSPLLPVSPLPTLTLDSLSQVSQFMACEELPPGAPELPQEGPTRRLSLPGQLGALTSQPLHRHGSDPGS
Take `COc1ccc(-c2cc(C(=O)NCC(c3ccco3)N(C)C)c3ccccc3n2)cc1OC` (centres unmarked): the “hERG current change (%, negative = inhibition) at 10uM” value is given as -14.5%.
With `CCN1CCc2c(C#N)c(N3CCCCC3)nc(NCc3ccccc3)c2C1` the figure was -39.8%; with `O=C(NCC(=O)N1CCC2(CC1)NCCc1[nH]cnc12)c1ccc(F)cc1`, 14.9%.
Regarding `O=C(CCCn1c(=O)c2sccc2n(Cc2cc(=O)n3ccccc3n2)c1=O)NCc1ccco1`, the “hERG current change (%, negative = inhibition) at 10uM” value is reported as -3.96%.
The figure for `CCOC(=O)Cn1c(=NC(=O)c2sc3ccccc3c2Cl)sc2cc(S(N)(=O)=O)ccc21` is 4.82%; for `CCOc1cc(S(=O)(=O)N2CCCCCC2)ccc1F` it is -35%; for `Cn1c(CNC(=O)c2ccc(F)cc2)cc2ccccc21` it is 3.45%.
The figure for `O=C(c1ccc(COc2ccc3ccccc3c2)o1)N1N=C(C(F)F)CC1(O)C(F)F` (centres unmarked) is -2.62%; for `CN1N=C(c2ccc(Cl)cc2)CC(c2ccc(Cl)cc2)C1=O` (centres unmarked) it is -2.95%; for `CCCCNC(=O)c1ccc2c(=O)n(CCCOCC)c(=S)[nH]c2c1` it is -12.4%.
On to `CCC(C)NC(=O)C1CCN(S(=O)(=O)N2CCOCC2)CC1` (centres unmarked), for which the “hERG current change (%, negative = inhibition) at 10uM” value was 22.8%.
With `Cc1ccc(C(=O)NC2CC3CCC(C2)N3Cc2ccco2)cc1` (centres unmarked) the figure was -46.5%; with `CCCCn1nc(C(=O)OCC(=O)Nc2sccc2C(N)=O)c2ccccc2c1=O`, -15.8%.
The figure for `COC(=O)[C@@H](NC(=O)N1CCC(Cc2ccccc2)CC1)C(C)C` is -1.62%; for `CC(=O)N(c1ccc2oc(=O)sc2c1)S(=O)(=O)c1ccc(C(=O)O)cc1` it is 10.1%; for `NC(=O)c1ccc(NC(=O)COC(=O)c2ccc(Br)o2)cc1` it is -13.4%.
The figure for `COc1ccc(-c2cn(Cc3ccc(C(N)=O)cc3)c(-c3ccncc3)n2)cc1` is -60.1%; for `COc1ccc(C(=O)N2CCCC(Nc3ccc(C)c(C)c3)C2)c(OC)n1` (centres unmarked) it is -17.7%; for `CC(C)c1ccc(NC(=S)Nc2ccc3[nH]c(=O)[nH]c3c2)cc1` it is 7.59%.
As to `Cc1nn(CC(=O)O)c(C)c1NC(=O)c1cccs1`, the “hERG current change (%, negative = inhibition) at 10uM” value was 21.6%.
With `O=C(OCC(=O)N1CCCCCC1)c1ccc(S(=O)(=O)N2CCOCC2)cc1` the figure was 0.238%; with `Cc1ccc(NC(=O)Nc2ccccc2C(N)=O)cc1`, 15.6%.
Take `Cc1cccc(OCC(=O)NCC(=O)N/N=C/c2cc(Br)ccc2OCc2ccccc2)c1`: the “hERG current change (%, negative = inhibition) at 10uM” value was 7.04%.
With `COc1ccccc1-c1noc(CCC(=O)NC2CCCCC2)n1` the figure was 6.96%; with `O=C1Nc2ccc(S(=O)(=O)N3CCCCCC3)c3cccc1c23`, 9.17%; with `O=C(NCCN1CCOCC1)c1ccc(Cl)c(S(=O)(=O)N2CCCCC2)c1`, -58.3%.
As for `CCC1(O)c2ccccc2-c2ncccc21` (centres unmarked), the “hERG current change (%, negative = inhibition) at 10uM” value came out at 4.06%.
The figure for `COC(=O)Cc1ccc(NC(=S)N2CCN(C(=O)C3CCCO3)CC2)cc1` (centres unmarked) is 8.34%; for `O=C(NCC(c1ccco1)N1CCCC1)c1ccc(S(=O)(=O)Nc2ccccc2F)cc1` (centres unmarked) it is -8.56%; for `Cc1ccc(N(CN2CCCC2=O)C(=O)c2ccc(C)c(C)c2)cc1` it is -8.68%.
With `COc1cccc(-c2cc(C(=O)N3CCN(Cc4ccccc4)CC3)no2)c1` the figure was -15.7%; with `CC(=O)C1=C(C)NC(=O)NC1c1ccccc1OCC(=O)NCCc1ccccc1` (centres unmarked), -6.63%.
With `COC(=O)CS(=O)(=O)c1ccsc1C(=O)Nc1ccc(F)c(F)c1`, the “hERG current change (%, negative = inhibition) at 10uM” value was found to be 12.9%.
With `CCOC(=O)c1c(NC(=O)CN2C(=O)NC3(CCC(C)CC3)C2=O)sc(C(=O)N(C)C)c1C` (centres unmarked) the figure was -36.7%; with `COc1cccc(OC)c1C(=O)Nc1nc2ccc([N+](=O)[O-])cc2s1`, 18.5%; with `Cc1cccc(-c2noc(-c3ccc4c(c3)OCO4)n2)c1`, 7.53%.
With `CCCC(=O)Nc1ccc(N2CCN(C(=O)CCC)CC2)cc1` the figure was -16.5%; with `Cl.O=S1(=O)CCC(NC2CCCC2)C1` (centres unmarked), -44.2%.
With `c1ccc(-c2nc3nc4ccccc4nc3n2CC2CCCO2)cc1` (centres unmarked) the figure was -1.81%.
Take `COc1cc(/C=C/c2ccc3cccc([N+](=O)[O-])c3n2)ccc1OCC#N`: the “hERG current change (%, negative = inhibition) at 10uM” value was determined as 1.18%.
Take `O=C(COc1ccc2c3c(c(=O)oc2c1)CCC3)c1ccc2c(c1)OCO2`: the “hERG current change (%, negative = inhibition) at 10uM” value is reported as -5.8%.
For `CCOC(=O)C1CCN(C(=O)c2cccnc2Oc2ccccc2)CC1`, the “hERG current change (%, negative = inhibition) at 10uM” value is 2.49%.
The figure for `COc1ccc(OC)c(Cc2nnc(CCC(=O)NCc3ccc(C)s3)o2)c1` is -5.32%.
The figure for `Cc1ccc(C(O)(COC(=O)C(C)C)COC(=O)C(C)C)c(O)c1` is 3.76%; for `CCOc1cc(-c2sc(Nc3ccc(CC)cc3)n[n+]2-c2ccccc2)ccc1OC.[Cl-]` it is -78.7%; for `Cc1cccc(NC(=O)CSc2ccc(-c3cccs3)nn2)c1C` it is -2.04%.
Consider `Cn1ncc(C(=O)Nc2ccc(Cl)cc2)c1C(F)(F)F`, for which the “hERG current change (%, negative = inhibition) at 10uM” value is recorded as -12%.
Take `CC12CCC(=O)N1C(C(=O)Nc1ccccc1N1CCCCC1)CS2` (centres unmarked): the “hERG current change (%, negative = inhibition) at 10uM” value was -15.9%.
Turning to `CCC(=O)N=c1n(C)c2ccccc2n1CCOc1ccccc1`, the “hERG current change (%, negative = inhibition) at 10uM” value is listed as -6.66%.
The figure for `CCOC(=O)CNc1nc(Cl)c(C#N)s1` is 1.49%; for `CCCCN(C(=O)c1ccc(N2CCCC2=O)cc1)c1c(N)n(CC(C)C)c(=O)[nH]c1=O` it is 3.67%; for `COc1ccc(OC)c(S(=O)(=O)NCCS(=O)(=O)N2CCN(c3ccccc3)CC2)c1` it is -1.2%.
The figure for `CCOc1nc(-c2ccc(Cl)cc2Cl)ccc1C#N` is -1.99%.
As for `O=C(CN1C(=O)/C(=C/c2cccc(Br)c2)SC1=S)NC1=NCCS1`, the “hERG current change (%, negative = inhibition) at 10uM” value worked out at 26%.
Take `COc1ccccc1C(=O)Nc1cccc2nc(C)ccc12`: the “hERG current change (%, negative = inhibition) at 10uM” value is 8%.
With `Nc1cc(-c2ccc(Br)cc2)[nH]n1` the figure was -1.2%.

Source of the values: article PMC4336329 (PLoS ONE, 2015).
